Results on 13 sequences are retold here after publication PMC5700166.

Assay in all cases: protein-binding microarray (PBM)
Common to all, as to conditions: PBM: ~300 nM protein, 6 mM HEPES pH 7.8, 80 mM KCl, 0.5 mM EDTA, 0.5 mM EGTA, 6% glycerol, 35 ng/ul poly-dIdC, 1% milk, 1 h, room temperature; Ap Aiptasia and Nv Nematostella (sea anemones) / Co Capsaspora / Aq Amphimedon (sponge) / Dm Drosophila / Hu human; RHD is the Rel homology domain; high values mean tight binding; most listed sequences are background and not binding sites; double strand, one strand shown

One test deals with T1, GST-Ap-NF-kB RHD (UniProt A0A913YAJ5).
T1 sequence: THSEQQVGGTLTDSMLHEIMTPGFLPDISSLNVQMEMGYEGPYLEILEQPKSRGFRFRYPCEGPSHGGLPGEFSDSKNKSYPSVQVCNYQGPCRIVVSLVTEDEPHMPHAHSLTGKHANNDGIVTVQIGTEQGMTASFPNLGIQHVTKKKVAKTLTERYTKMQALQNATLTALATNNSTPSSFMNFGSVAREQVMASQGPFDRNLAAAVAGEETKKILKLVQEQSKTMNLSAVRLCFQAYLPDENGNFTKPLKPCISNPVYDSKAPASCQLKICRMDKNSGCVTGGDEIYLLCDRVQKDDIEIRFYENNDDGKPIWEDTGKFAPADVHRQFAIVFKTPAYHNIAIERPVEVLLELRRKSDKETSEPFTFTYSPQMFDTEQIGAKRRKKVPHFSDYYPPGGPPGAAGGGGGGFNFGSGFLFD

The target of test [1] is T2, GST-Nv-NF-kB (Cys allele) (UniProt E5G601).
T2 sequence: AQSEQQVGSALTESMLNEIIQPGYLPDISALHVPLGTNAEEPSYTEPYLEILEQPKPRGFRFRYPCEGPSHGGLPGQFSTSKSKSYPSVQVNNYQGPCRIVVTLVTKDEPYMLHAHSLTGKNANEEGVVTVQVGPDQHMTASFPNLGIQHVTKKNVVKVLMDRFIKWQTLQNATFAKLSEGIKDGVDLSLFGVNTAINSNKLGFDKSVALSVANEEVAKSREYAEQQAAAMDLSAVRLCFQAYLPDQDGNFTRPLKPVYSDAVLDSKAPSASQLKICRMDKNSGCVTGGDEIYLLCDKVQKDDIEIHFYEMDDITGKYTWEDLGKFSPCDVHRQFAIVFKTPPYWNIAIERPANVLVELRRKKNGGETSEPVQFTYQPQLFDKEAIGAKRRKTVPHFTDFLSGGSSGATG

For the next test, the target named is T3, GST-Co-NF-kB (UniProt F1ARL5).
T3 sequence: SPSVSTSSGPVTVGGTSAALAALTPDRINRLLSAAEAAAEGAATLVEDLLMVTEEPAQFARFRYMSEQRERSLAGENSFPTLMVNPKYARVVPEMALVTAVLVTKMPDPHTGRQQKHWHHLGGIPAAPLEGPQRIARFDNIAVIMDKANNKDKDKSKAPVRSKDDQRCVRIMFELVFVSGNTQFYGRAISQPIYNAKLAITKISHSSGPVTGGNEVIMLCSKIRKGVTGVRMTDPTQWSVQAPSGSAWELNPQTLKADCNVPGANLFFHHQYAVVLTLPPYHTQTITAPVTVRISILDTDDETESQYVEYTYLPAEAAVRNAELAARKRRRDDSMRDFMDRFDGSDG

For a further test, the target named is T4, GST-Dm-Relish (UniProt Q94527).
T4 sequence: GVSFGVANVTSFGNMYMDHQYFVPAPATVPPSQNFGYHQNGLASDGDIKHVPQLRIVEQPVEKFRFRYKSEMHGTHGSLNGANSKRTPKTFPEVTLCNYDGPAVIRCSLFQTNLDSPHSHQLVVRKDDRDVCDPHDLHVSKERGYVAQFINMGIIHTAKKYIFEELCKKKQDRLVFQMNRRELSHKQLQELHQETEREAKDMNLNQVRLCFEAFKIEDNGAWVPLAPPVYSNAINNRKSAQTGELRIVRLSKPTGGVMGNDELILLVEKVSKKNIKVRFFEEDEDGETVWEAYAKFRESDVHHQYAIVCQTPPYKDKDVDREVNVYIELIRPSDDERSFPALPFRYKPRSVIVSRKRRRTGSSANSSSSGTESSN

For a further test, the target named is T5, GST-Aq-NF-kB (UniProt A9Y5G7).
T5 sequence: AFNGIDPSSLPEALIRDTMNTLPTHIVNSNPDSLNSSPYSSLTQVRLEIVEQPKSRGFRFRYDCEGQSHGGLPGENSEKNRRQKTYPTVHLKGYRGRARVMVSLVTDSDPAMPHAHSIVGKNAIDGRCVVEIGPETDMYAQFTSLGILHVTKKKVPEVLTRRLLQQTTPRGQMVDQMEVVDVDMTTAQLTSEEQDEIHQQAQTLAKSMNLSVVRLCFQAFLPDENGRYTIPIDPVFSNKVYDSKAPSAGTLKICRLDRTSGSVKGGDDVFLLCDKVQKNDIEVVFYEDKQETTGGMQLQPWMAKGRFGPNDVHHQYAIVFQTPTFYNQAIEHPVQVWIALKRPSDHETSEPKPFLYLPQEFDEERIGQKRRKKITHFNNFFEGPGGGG

Only a part is listed here, and it is no random draw. The list includes weakly bound sequences.

On to “CCGATTAACATCACCGTTAGGCGTGATGTTAATCGGGTCTTGATTCGCTTGACGCTGCTG”, for which the binding signal with GST-Ap-NF-kB RHD worked out at 0.0491 z-score; in test [1] it was 0.183 z-score; with GST-Co-NF-kB it was 0.609 z-score; in the test with GST-Dm-Relish, 0.718 z-score; with GST-Aq-NF-kB, 0.123 z-score.
For “CCGATTAACATCACTTAGTACGGTGATGTTAATCGGGTCTTGATTCGCTTGACGCTGCTG” the same measures were 0.0649 z-score, -0.35 z-score, 0.763 z-score, 1.1 z-score and 0.24 z-score.
In the same order, the values of “CCGATTAACATCATGCTCGCCCATGATGTTAATCGGGTCTTGATTCGCTTGACGCTGCTG” are -0.301 z-score, -0.0299 z-score, 0.0408 z-score, -0.857 z-score and -0.431 z-score.
In the same order, the values of “CCGATTAACATCAGCCTCTAACCTGATGTTAATCGGGTCTTGATTCGCTTGACGCTGCTG” are -0.58 z-score, -0.52 z-score, -1.01 z-score, -1.14 z-score and -0.652 z-score.
“CCGATTAACATCAAGGCAGGCTGTGATGTTAATCGGGTCTTGATTCGCTTGACGCTGCTG”: the binding signal in the test with GST-Ap-NF-kB RHD was -0.583 z-score; in test [1], -0.473 z-score; with GST-Co-NF-kB it was -1.26 z-score; in the test with GST-Dm-Relish, -0.695 z-score; in the test with GST-Aq-NF-kB, -0.509 z-score.
For “CCGATTAACATCACCTGGAGCGATGATGTTAATCGGGTCTTGATTCGCTTGACGCTGCTG” the same measures were 0.282 z-score, 0.374 z-score, -0.278 z-score, 0.232 z-score and 0.225 z-score.
Take “CCGATTAACATCAAGGAATATCCTGATGTTAATCGGGTCTTGATTCGCTTGACGCTGCTG”: the binding signal is -0.456 z-score in the test with GST-Ap-NF-kB RHD; -0.142 z-score in test [1]; -0.287 z-score with GST-Co-NF-kB; 0.765 z-score with GST-Dm-Relish; 0.978 z-score with GST-Aq-NF-kB.
As for “CCGATTAACATCAAAAACCTGGATGATGTTAATCGGGTCTTGATTCGCTTGACGCTGCTG”, the binding signal with GST-Ap-NF-kB RHD is 0.0865 z-score; in test [1], -0.0887 z-score; in the test with GST-Co-NF-kB it was 0.382 z-score; with GST-Dm-Relish it was -0.245 z-score; with GST-Aq-NF-kB, -0.0554 z-score.
In the same order, the values of “CCGATTAACATCAATACGAGGACTGATGTTAATCGGGTCTTGATTCGCTTGACGCTGCTG” are 0.161 z-score, 0.893 z-score, 0.00134 z-score, -0.524 z-score and -0.259 z-score.
For “CCGATTAACATCATAACTGACCTTGATGTTAATCGGGTCTTGATTCGCTTGACGCTGCTG” the same measures were -0.342 z-score, -0.381 z-score, -0.0873 z-score, -0.329 z-score and -0.349 z-score.
Turning to “CCGATTAACATCAGGCCTTTAACTGATGTTAATCGGGTCTTGATTCGCTTGACGCTGCTG”, the binding signal with GST-Ap-NF-kB RHD is -0.558 z-score; in test [1], -0.0759 z-score; with GST-Co-NF-kB it was -1.07 z-score; with GST-Dm-Relish, -0.0364 z-score; with GST-Aq-NF-kB, -0.39 z-score.
As to “CCGATTAACATCACGAATTTCCATGATGTTAATCGGGTCTTGATTCGCTTGACGCTGCTG”, the binding signal with GST-Ap-NF-kB RHD was -0.286 z-score; in test [1], 0.213 z-score; with GST-Co-NF-kB, 0.647 z-score; in the test with GST-Dm-Relish, 0.479 z-score; with GST-Aq-NF-kB, 0.00157 z-score.
For “CCGATTAACATCACTGCGAAAAGTGATGTTAATCGGGTCTTGATTCGCTTGACGCTGCTG” the same measures were -0.735 z-score, 0.0805 z-score, -0.87 z-score, 0.777 z-score and -0.565 z-score.
